From the supplement of paper PMC10126150
Values marked as one replicate rest on one cluster of the flow cell; about a third of the high ones do not repeat.

Each sequence was assayed on ATP (assay: switch fluorescence ratio, 500 uM ATP over buffer (Cy3 cluster intensity, sum of 5 cycles each) (fold (ratio)); higher = stronger signal-on switching upon ATP binding; sequences stand for … in TCGTCGGCAGCGTCAGATGTGTATAAGAGACAGTTTTTTTTTTTTTTTTTTTTTTTTT…TC). Conditions: aptamer strand: ATP DNA aptamer (quencher-CACCTGGGGGAGTATTGCGGAGGAAGG + anchor), 100 nM annealed; ATP concentration: 500 uM; one replicate.
Procedure, shortened: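 Switching-strand clusters labelled with Cy3 on a modified Illumina MiSeq flow-cell were annealed to 100 nM quencher-labelled ATP aptamer, imaged in selection buffer, and re-imaged after 15 min with 500 uM ATP at 22 °C. This was done over five cycles with NaOH stripping and re-annealing in between. The fluorescence ratio is summed target-cycle over summed buffer-cycle Cy3 intensity per cluster, averaged per switch-domain sequence, excluding clusters outside 100-1000 RFU.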
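Further: ATP exposure 15 min at 22 °C before imaging.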

Sequence | switch fluorescence ratio
GCATACTGTA | 1.12
GCATATACAA | 1.08
GCATCACGCT | 1.07
GCATCAGCTG | 0.986
GCATCAGGGG | 1.45
GCATCGCCGT | 1
GCATCGGAGA | 1.03
GCATCTAAGT | 1.05
GCATCTAGG | 1.12
GCATCTATTC | 1.01
GCATGACCGG | 0.959
GCATGAGAGT | 0.938
GCATGATTGC | 0.994
GCATGCCGAA | 0.986
GCATGGCACT | 1
GCATGTACT | 1.19
GCATGTGTAA | 1.01
GCATGTTCCA | 0.993
GCATTATACG | 1.22
GCATTCGTTT | 0.957
GCATTTCTGC | 0.991
GCCAAAAGTC | 0.962
GCCAACTACT | 1.1
GCCAAGTCCC | 1.04
GCCAAGTGGG | 0.973

Sequence | switch fluorescence ratio
GCCAATTTGT | 0.974
GCCACATAGA | 0.991
GCCACCGAGG | 1.04
GCCACCGCCG | 1.18
GCCACGAGTC | 1.02
GCCACGATAT | 1.21
GCCACGGCTT | 0.982
GCCACTTTTC | 1.01
GCCAGCGTTA | 1.08
GCCAGTG | 1.06
GCCAGTGCCT | 1.03
GCCATATAGA | 1.04
GCCATATTAA | 0.967
GCCATGGGTT | 1.01
GCCATGGTTT | 1.05
GCCATTGGAT | 0.977
GCCATTTATG | 0.977
GCCCAACGCA | 1.27
GCCCAACGCG | 1.01
GCCCAATAGT | 1.2
GCCCAATGAG | 1.01
GCCCACCGTA | 1.03
GCCCACGACC | 1.31
GCCCACGGGT | 1.12
GCCCATTTTA | 1

Sequence | switch fluorescence ratio
GCCCCAATAG | 3.4
GCCCCAGACG | 1.15
GCCCCAGCAG | 1.13
GCCCCCTATT | 1.05
GCCCCTTTTT | 1.01
GCCCGACGGC | 1.06
GCCCGAGACT | 1.01
GCCCGCATGG | 1.72
GCCCGCCGAC | 2.04
GCCCGCGAAA | 1.12
GCCCGGTACG | 1.01
GCCCGTGCGC | 1.02
GCCCGTTTTA | 0.985
GCCCTAGTGC | 1.04
GCCCTATCGG | 0.995
GCCCTGTAGA | 1.06
GCCCTTGTGA | 1.02
GCCCTTTGGC | 0.992
GCCGAACTGG | 0.991
GCCGACAGGT | 0.961
GCCGACGTCT | 1
GCCGACGTGA | 1.93
GCCGATACTT | 1.04
GCCGATAGAA | 0.942
GCCGCAGAAT | 1.23

Sequence | switch fluorescence ratio
GCCGCATAAT | 1.78
GCCGCCTACC | 1.17
GCCGCGAGA | 1.24
GCCGCGCC | 1.14
GCCGGAATCG | 0.999
GCCGGCAGAG | 0.984
GCCGGCCACC | 1.03
GCCGGGGAAT | 0.98
GCCGGTAGCA | 1.03
GCCGTAGCGC | 1.09
GCCGTATCCA | 1.01
GCCGTCATCT | 1.05
GCCGTCGGTA | 0.985
GCCGTGCTCG | 1.01
GCCGTGGTTT | 0.982
GCCGTTATTG | 0.936
GCCGTTCATT | 1.04
GCCGTTGAAG | 1.03
GCCGTTTACT | 1.04
GCCTAAATTC | 0.98
GCCTAATCGG | 1.05
GCCTACAGTG | 1.11
GCCTACGGG | 1.06
GCCTACTCGT | 1.01
GCCTAGAATA | 0.959
